# Laboratory results from the BET-seq Pho4 binding data (Le et al. 2018).
# The list shows a part of the results. The energies were worked out here from pooled read counts, against the library average; single values are noisy.
# Target: T1, Pho4 (S. cerevisiae) (UniProt P07270)
# T1 sequence: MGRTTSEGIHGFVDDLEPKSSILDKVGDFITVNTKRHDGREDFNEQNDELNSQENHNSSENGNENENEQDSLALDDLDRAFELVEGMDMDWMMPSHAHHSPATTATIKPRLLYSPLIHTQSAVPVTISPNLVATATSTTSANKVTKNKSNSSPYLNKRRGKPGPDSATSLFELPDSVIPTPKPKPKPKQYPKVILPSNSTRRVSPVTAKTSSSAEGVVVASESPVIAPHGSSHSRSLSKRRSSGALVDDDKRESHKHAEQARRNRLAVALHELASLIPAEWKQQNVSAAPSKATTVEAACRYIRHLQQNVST
# Assay: relative binding free energy (BET-seq); higher = weaker binding
# Conditions: reference: library average
row,Sequence,relative binding free energy [kcal/mol]
1,TGTCACACGTGTTCGG,0.14
2,GGGGTCACGTGGCTAA,0.04
3,GTTGTCACGTGCATAT,0.12
4,ACTGGCACGTGTGCTG,-0.13
5,TAGTGCACGTGAGAGG,0.13
6,ATAGACACGTGTGATA,0.07
7,TTAATCACGTGATTAA,0.18
8,AGGGCCACGTGGCTGT,-0.08
9,GGGCACACGTGGGTAG,-0.04
10,AAAGGCACGTGGGAAT,-0.07
11,TAGGGCACGTGGGCGC,-0.26
12,TGTACCACGTGGGGCA,-0.23
13,GTGATCACGTGATAAT,0.38
14,AAATGCACGTGCTGGG,-0.04
15,TTACCCACGTGGTTGG,-0.13
16,GTATACACGTGGTGGC,0.06
17,CGGTTCACGTGCGTAG,0.17
18,ATTAGCACGTGGTGGA,-0.14
19,TGAGTCACGTGCGGGG,0.15
20,CTTTTCACGTGGGGAA,0.04
21,GAGAGCACGTGTGGTT,0
22,GTTATCACGTGTAGGC,0.14
23,CTGCTCACGTGTAGGG,0.2
24,GTGTTCACGTGTAAAT,0.32
25,TGACGCACGTGCGAGT,-0.06
26,GGTTCCACGTGGGCGG,-0.06

row,Sequence,relative binding free energy [kcal/mol]
1,TGATGCACGTGAGGGT,0.2
2,GCGGTCACGTGGGTTC,0.06
3,GTGTGCACGTGGAGTG,0.05
4,CAGTACACGTGGAGGG,0.1
5,GGTCACACGTGAGGTG,0.3
6,ATAGACACGTGAGTTG,0.25
7,CTGGTCACGTGATGCT,0.23
8,TCAGGCACGTGGGTCT,-0.29
9,TTGGTCACGTGGCTAT,0.02
10,GCTTACACGTGATGTT,0.22
11,ATCGGCACGTGTCGGG,-0.09
12,TTGGTCACGTGGAGCG,0.05
13,GCTGTCACGTGTATGT,0.19
14,TGTCGCACGTGGGTGA,-0.21
15,TTTTACACGTGGGGAA,0.05
16,GGGAACACGTGTATGG,0.16
17,GGCGTCACGTGTGGGC,0.11
18,GTGATCACGTGTTGTG,0.19
19,GTGTGCACGTGTCCGT,0.02
20,CATGTCACGTGGGCTT,-0.08
21,ATTGTCACGTGAGGCT,0.22
22,AGTGTCACGTGGGCGA,-0.03
23,TTTAGCACGTGCAGTG,-0.17
24,TTAGGCACGTGAAGGC,0.19
25,CTGTGCACGTGGGTTT,-0.13
26,TAGGGCACGTGGGTGG,-0.2

row,Sequence,relative binding free energy [kcal/mol]
1,GTAGACACGTGAGGTG,0.32
2,GTGATCACGTGTGTTA,0
3,GGTGTCACGTGAGTAT,0.39
4,AGAGTCACGTGAGGTC,0.37
5,GGTGGCACGTGAACGG,0.04
6,TAATTCACGTGTTGAG,0.27
7,GAGTTCACGTGTTGGT,0.46
8,GCGTTCACGTGGTAGT,0.24
9,TGGTTCACGTGTTTAA,0.25
10,GCTCTCACGTGTGGGG,0.18
11,GACGACACGTGAGGAG,0.56
12,TGTTACACGTGGTCTT,0.15
13,GTGGGCACGTGTTACG,-0.03
14,TTCATCACGTGTGGGG,0.3
15,GTTGGCACGTGTGAGG,-0.02
16,TAAATCACGTGTGTAT,0.33
17,TTATACACGTGCTGGT,-0.06
18,GGCGGCACGTGGCTGG,-0.08
19,GAAATCACGTGACGGG,0.51
20,ATGTCCACGTGGTGTG,-0.05
21,AATTGCACGTGAGCGT,-0.05
22,CTGAGCACGTGGTCTG,-0.09
23,AACTTCACGTGGTGTG,0.06
24,CTAGGCACGTGGGTAC,-0.18
25,ATCAACACGTGTAGGT,0.13
26,GGTTTCACGTGACGTA,0.37

row,Sequence,relative binding free energy [kcal/mol]
1,GAAGGCACGTGTAATG,0
2,TGTTCCACGTGAATGT,0.32
3,GGAATCACGTGTATGT,0.18
4,AAGTACACGTGAAGTG,0.28
5,AGGGCCACGTGAGATT,0.24
6,GTTGTCACGTGATGAG,0.16
7,ATTGCCACGTGTTTGA,-0.14
8,TAAGTCACGTGGGAGT,-0.01
9,TAGCTCACGTGGTGGG,0.06
10,GATGTCACGTGTAGAA,0.24
11,TAGCTCACGTGGGTAA,0.15
12,GTAGTCACGTGTTTGC,0.24
13,ATGTACACGTGTGAAG,0.08
14,TTTTGCACGTGTTATA,0
15,TTAAGCACGTGTGTGC,-0.03
16,CTTTTCACGTGCTTTG,0.26
17,ATTATCACGTGTGTAC,0.16
18,TGAAACACGTGTTTGG,0.01
19,TATAGCACGTGGCTGG,-0.14
20,AGTGCCACGTGGGCGG,-0.24
21,GACTTCACGTGTGGGT,0.3
22,ATAACCACGTGGGGTT,-0.17
23,AATGGCACGTGCATTG,-0.14
24,TGTAGCACGTGCCGTT,-0.08
25,AGGAGCACGTGGTGTA,-0.23
26,TGTGGCACGTGGCCTA,-0.29

row,Sequence,relative binding free energy [kcal/mol]
1,GTGATCACGTGCTGGC,0.16
2,TATAGCACGTGTGCGG,-0.06
3,AGTCGCACGTGTGGCT,0.08
4,ACGGGCACGTGTGCTG,-0.13
5,TCCTGCACGTGATTGG,0.25
6,TCGTGCACGTGAGTTA,0.18
7,TCTCGCACGTGTTATT,0
8,CAGTTCACGTGTTGTT,0.22
9,CGGAACACGTGGGTGT,-0.34
10,TGCGGCACGTGGTTGG,-0.03
11,TGGGCCACGTGGTCGC,-0.16
12,TAAGGCACGTGGCGGT,-0.11
13,GTAATCACGTGGAATT,0.25
14,GTTTTCACGTGTTTGG,0.39
15,TTTCGCACGTGTGTGC,0.03
16,AGAGGCACGTGTTATG,-0.15
17,TATAGCACGTGAGAGG,0.13
18,TGAAGCACGTGGGTAA,-0.06
19,ATAGTCACGTGGAAAA,0.23
20,TATTTCACGTGTAAGG,0.43
21,TTCTGCACGTGCAGGT,-0.01
22,AGTGGCACGTGAATAG,0.19
23,AGATGCACGTGGACGG,0.06
24,AGGGACACGTGTTTGA,0.05
25,GGGGGCACGTGGCAGT,-0.25
26,TCATGCACGTGTGGAT,0.07

row,Sequence,relative binding free energy [kcal/mol]
1,AAGAGCACGTGTTATT,-0.07
2,GAGTGCACGTGCGGTG,-0.16
3,GATTGCACGTGGTTAT,0.06
4,GTAGGCACGTGTTAGA,-0.16
5,TTATGCACGTGCGGTA,-0.09
6,AAGTGCACGTGCGGGT,-0.08
7,AATTCCACGTGGTGGG,-0.14
8,TGAAGCACGTGGCTGC,0.07
9,GATCGCACGTGTGGTT,0
10,AGTTACACGTGGCTTG,-0.01
11,TGCGGCACGTGTTAAG,-0.22
12,ATGTACACGTGGTAGG,0.03
13,TTTAGCACGTGGTACA,-0.22
14,CGGTGCACGTGGGACT,0
15,AATTGCACGTGACGTG,0.08
16,GGTAACACGTGAAGCG,0.29
17,TTGTACACGTGTAAGG,0.24
18,TGCATCACGTGTGGTG,0.19
19,TATAACACGTGATGTA,0.07
20,TAGTGCACGTGGCGTC,-0.09
21,TAGTGCACGTGGGATA,-0.17
22,GTTCTCACGTGTTGGG,0.33
23,GTTGCCACGTGGGTAT,-0.2
24,TGCGGCACGTGTTGTT,-0.12
25,CTTGTCACGTGCGTAT,0.08
26,AGCATCACGTGAAGTG,0.24

row,Sequence,relative binding free energy [kcal/mol]
1,GCTGGCACGTGAGTGA,0.15
2,GTGCTCACGTGGTAAT,0.32
3,CGTTGCACGTGTTATG,-0.12
4,CGTTACACGTGTATAT,0.13
5,ATGGGCACGTGCAATG,-0.13
6,CGAATCACGTGTGTTA,0.2
7,TGAGTCACGTGAGTCT,0.25
8,AGCGGCACGTGTGAGG,0.07
9,TAAAGCACGTGGTAGT,-0.19
10,AGAATCACGTGGGTGT,0.11
11,TGAGGCACGTGATCGT,-0.11
12,GTTTTCACGTGGCAGG,0.26
13,TATAGCACGTGAGGGG,0.17
14,GCTTACACGTGTAGTG,0.05
15,AATCGCACGTGTTATG,-0.02
16,GTTTCCACGTGTGCTG,0.26
17,GCTTTCACGTGTGATT,0.37
18,ACGTTCACGTGTCGGT,0.14
19,GTCAACACGTGTGTGT,0.03
20,GTGATCACGTGGCTAG,0.06
21,AGGTGCACGTGCTGTC,-0.11
22,TTTTCCACGTGAGGGA,0.27
23,TTGGCCACGTGCGATT,0.09
24,TTAGGCACGTGATTGG,0.02
25,AAGAACACGTGTTGGG,0.02
26,CTTTTCACGTGGGGCT,0.09

row,Sequence,relative binding free energy [kcal/mol]
1,GAGATCACGTGCGGTG,0.21
2,TAAAGCACGTGGGTAG,-0.22
3,TTTCGCACGTGAGGCG,0.18
4,CAGTGCACGTGGTTTG,-0.01
5,ATGTACACGTGATGCT,0.13
6,GTAATCACGTGCGTGG,-0.01
7,TTTAGCACGTGGGGAC,-0.14
8,AAATTCACGTGTTCGG,0.13
9,GCGGGCACGTGAGTTT,0.2
10,GTCGACACGTGTGCGG,0.06
11,TGCTTCACGTGGGGCT,0.12
12,TTGTGCACGTGGGCGT,-0.18
13,AGTTTCACGTGGTGGA,0.33
14,GTAATCACGTGGTTGG,0.26
15,TTAACCACGTGTGTTA,0.01
16,CATCGCACGTGTTAGG,0.16
17,TGTGACACGTGAACTG,0.33
18,GTAATCACGTGTTGGA,0.17
19,TTAGTCACGTGGAATG,0.11
20,GTTTGCACGTGAAGAG,0.24
21,CAGGACACGTGAGGTT,0.27
22,TGGGGCACGTGACTCG,0.09
23,TGTGTCACGTGGACGT,0.07
24,CTGGGCACGTGTGTCG,-0.18
25,GTTGTCACGTGGCCTG,0.05
26,TATTGCACGTGGTGAG,-0.05

row,Sequence,relative binding free energy [kcal/mol]
1,GATTTCACGTGTATAA,0.44
2,ATGGTCACGTGTATAT,0.1
3,TTAAACACGTGAGTGG,0.2
4,TTGGTCACGTGGAGAG,0.13
5,ATTCTCACGTGTATGT,0.11
6,TATATCACGTGTGGGG,0.23
7,AGGCGCACGTGCGGGT,-0.25
8,GGGTCCACGTGGGCTG,0
9,AGCTTCACGTGGGGCA,0.16
10,TCTTTCACGTGTGTGA,0.14
11,CTAATCACGTGTAGGG,0.17
12,CTTGGCACGTGTAAAT,0.23
13,ATGTGCACGTGAGGAT,0.22
14,TGCATCACGTGTATTT,0.18
15,ATTGACACGTGAAGAG,0.15
16,GAGGTCACGTGGTGCA,0.04
17,TTTTACACGTGGTTGC,0.08
18,GGGGCCACGTGGTACG,-0.18
19,GGTATCACGTGTTCGA,0.19
20,CTTGTCACGTGGCGGG,-0.01
21,TAAAGCACGTGTCGTT,0
22,TATAACACGTGCGGTG,-0.12
